Data published in the RNAGym collection of RNA variant scans (doi:10.1073/pnas.2313332121).
This sample is rich in variants without activity.

B1: TPR 5TU (parent)
chain: GGAUCUUCUCGAUCUAACAAAAAAGACAAAUCUGCCACAAAGCUUGAGAGCAUCUUCGGAUGCAGAGGCGGCAGCCUUCGGUGGCGCGAUAGCGCCAACGUUCUCAACUAUGACACGCAAAACGCGUGCUCCGUUGAAUGGAGUUUAUCAUG

Variants of: B1
Assay: polymerase ribozyme fitness, log enrichment relative to wild type (log ratio); higher = more active; in vitro selection for triplet polymerase activity
Procedure, shortened: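 Both subunits of a heterodimeric triplet polymerase ribozyme were given their own mutant library, built by PCR and transcribed. Each library was annealed with a biotinylated primer, the partner subunit and triplets, incubated frozen at −7 °C, and its extended constructs gel-excised, captured on streptavidin beads and amplified by RT-PCR, all in one round done in triplicate. Fitness is the logarithm of genotype enrichment relative to wild-type enrichment, with replicates averaged by inverse-variance weighting. That logarithm is base 2, and Illumina-sequenced genotypes needed ≥10 input reads and ≥1 read per output.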

Polymerase ribozyme fitness (log ratio), -2.85:
C38G A73U C95A U146G

Polymerase ribozyme fitness (log ratio), -3.01:
C38A U56A G86C

Polymerase ribozyme fitness (log ratio), -1.78:
C38G A41G U55A G83A G143A

Polymerase ribozyme fitness (log ratio), -3.51:
A37U C95G

Polymerase ribozyme fitness (log ratio), -3:
C38A C63G A150G

Polymerase ribozyme fitness (log ratio), -2.45:
C38U G62A A113G G136A

Polymerase ribozyme fitness (log ratio), -2.43:
A37G C95U

Polymerase ribozyme fitness (log ratio), -3.52:
C36U G94A

Polymerase ribozyme fitness (log ratio), -0.43:
C38A C96U C99U

Polymerase ribozyme fitness (log ratio), -0.6:
C38U C125A

Polymerase ribozyme fitness (log ratio), -2.5:
C38A A41U A52C

Polymerase ribozyme fitness (log ratio), -2.72:
A39U A41C A98G

Polymerase ribozyme fitness (log ratio), -3.08:
A37U G58U C96U C118G U146C

Polymerase ribozyme fitness (log ratio), 0.0337:
C38U A73U

Polymerase ribozyme fitness (log ratio), -1.91:
A39G G117C

Polymerase ribozyme fitness (log ratio), -2.86:
A37U U134G

Polymerase ribozyme fitness (log ratio), -1.07:
C38U A89G

Polymerase ribozyme fitness (log ratio), -2.78:
A37G C54A G141A

Polymerase ribozyme fitness (log ratio), -1.52:
C38A G58U C95G

Polymerase ribozyme fitness (log ratio), -1.57:
C38U G86U

Polymerase ribozyme fitness (log ratio), ≤ -4.2:
A37C C54U G80A G84A A97U G126A G140C
A39C A40C U77G G81C C95U A120C
A39U A52G A107U G128A C129A
A39C G59U C76G U146G
C38A C93G U151G
A37G A97G C114U A137U A142U
A37G U82A A89C
A37C G83C C85G C96G U130G G141A U148G
C36U U55A U61A A66C G84C U145G
A39C U55G C69A C87G
C38U A52C U61A C85G A89U C96G G140A
A37U G50A A52C U82G C103G
A37U A47C C85U C95U A113C U148A G152U
A37C U56A U90A C103G A121U C123U G141C
C38A U61G C69U G84A C85U G140U
C38G U53C G67U G88A G133C G140U G143A
A39G A49C U55A A73G G88A G141A A147G
C38G C43U C87A C132G U135G G136C U146A
C38G G42C U82G G86C G141C U144G
C38A C57G U77G C79U A91G
A39C G81A C99U C103G A107G C125U
A39C G92U G100C U144G
C38U A47U C79A G83A G133U
A39G A52G G92A
C38U G83C U102G A115U
A37U A52C G70C G84A G100C U139A
A39C A49U C116G
A37G G88U A137U
A37G G48C G50C G65A G74U G84A G100A G126C A147U
A37C G67A C96U C125U G133U G143A
A39G G58U G59C G124C G136A
A37U A89C C96U C103G U111A
C38G A52G U56A C57U A73C G80U C129U U148G
C38U G42C C96G
C38A G84A G86C G117U
C38A G92C G94U G112C
A39G A40G A64C A66G A91G C103G C125G U127G G140U
C36U G50C C85A A110C
A39G G59C G71A U101C A115G G140U
A39U A52G C57U G84A C132G
A37U C85U C95A A119U A138G
C38U C79A C95U
A37C G70A C85A G92A C93A
A37G C57U G74U C76G G88A U148A
A37C C63A C75U G80C A119U
C38A U56G C93G C95A
A39C A40C C96G C108A C123U C125G
A39C G42C C76A U144G
A37U C57U G88A G92A
A37C C69A U146C C149A
C38U A47C A49C G59U A64U U151C
C38A C85U U90A A147U
A39C U82G C99G A110U U127A
A37C U55A C105A
A37C G80C G92A C129A
C38U A49C G86A U130A G143A
C38U U55G G59A G62A C103A G141C
A39C G42C A122U G126C
A39G U55A U148G
C38U A64U G65A C87U G141A
A39C A52G G70A C99G G100A U144A
C38U C63A G70A C76A

Polymerase ribozyme fitness (log ratio), -3.67:
A37G A52C A97C

Polymerase ribozyme fitness (log ratio), -1.16:
C38U G86A
